One molecule from PMC11840927, “Frataxin Traps Low Abundance Quaternary Structure to Stimulate Human Fe–S Cluster Biosynthesis” (Biochemistry, 2025) can be followed below.

Assay [1] addresses T1, E. coli cysteine desulfurase IscS with a His-tag (E. coli, UniProt P0A6B7 1-404, PLP cofactor).
T1 construct: IscS, E. coli cysteine desulfurase; also called tagged IscS; His-tagged IscS
T1 sequence (looked up): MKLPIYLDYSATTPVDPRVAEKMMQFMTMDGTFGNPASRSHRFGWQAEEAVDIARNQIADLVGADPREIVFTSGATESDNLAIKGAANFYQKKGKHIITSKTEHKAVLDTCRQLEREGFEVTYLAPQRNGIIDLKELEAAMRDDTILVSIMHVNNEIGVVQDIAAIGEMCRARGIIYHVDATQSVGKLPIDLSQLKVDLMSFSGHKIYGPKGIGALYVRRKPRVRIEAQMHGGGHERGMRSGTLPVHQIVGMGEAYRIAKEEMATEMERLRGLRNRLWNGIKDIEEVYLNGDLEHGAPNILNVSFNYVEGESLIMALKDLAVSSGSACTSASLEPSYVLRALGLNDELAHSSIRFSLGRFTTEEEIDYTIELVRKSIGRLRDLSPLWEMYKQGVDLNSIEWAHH
As to the kind of experiment: native MS; complexes formed before the exchange reaction: SDAec with ISCU2 (1:3) or ISCU2 and FXN (1:3:3), IscS with IscU (1:3), 30 min, room temperature, EMR Orbitrap. The settings on record: both partners purified.

Assay [2] addresses T2, E. coli cysteine desulfurase IscS without a His-tag (E. coli, UniProt P0A6B7 1-404, PLP cofactor).
T2 construct: IscS, E. coli cysteine desulfurase; also called untagged IscS
T2 sequence (looked up): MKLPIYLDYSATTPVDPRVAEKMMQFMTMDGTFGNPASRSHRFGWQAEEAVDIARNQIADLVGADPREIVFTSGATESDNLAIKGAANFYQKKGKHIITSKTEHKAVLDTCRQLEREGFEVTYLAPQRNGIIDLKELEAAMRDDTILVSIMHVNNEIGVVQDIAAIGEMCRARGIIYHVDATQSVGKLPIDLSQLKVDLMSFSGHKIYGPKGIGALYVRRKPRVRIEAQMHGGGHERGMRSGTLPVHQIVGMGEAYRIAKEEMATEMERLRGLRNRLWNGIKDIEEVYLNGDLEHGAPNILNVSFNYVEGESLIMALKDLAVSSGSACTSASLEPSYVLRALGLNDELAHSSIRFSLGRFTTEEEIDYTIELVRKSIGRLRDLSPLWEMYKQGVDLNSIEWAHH
The assay is described as above. The settings on record: both partners purified.

B1: E. coli IscU (natural protein, UniProt P0ACD4 1-128, looked up)
chain: MAYSEKVIDHYENPRNVGSFDNNDENVGSGMVGAPACGDVMKLQIKVNDEGIIEDARFKTYGCGSAIASSSLVTEWVKGKSLDEAQAIKNTDIAEELELPPVKIHCSILAEDAIKAAIADYKSKREAK
notes: IscU, E. coli Fe–S cluster scaffold protein
Consider B1, for which the binding result in assay [1] and in assay [2] was “binds” throughout.
